This is one part of the list. These are noisy estimates, calculated here from bound and input reads.
molecular target: T1, Pho4 (S. cerevisiae) (UniProt P07270); assay: relative binding free energy (BET-seq); higher = weaker binding; conditions: reference: library average
T1 sequence: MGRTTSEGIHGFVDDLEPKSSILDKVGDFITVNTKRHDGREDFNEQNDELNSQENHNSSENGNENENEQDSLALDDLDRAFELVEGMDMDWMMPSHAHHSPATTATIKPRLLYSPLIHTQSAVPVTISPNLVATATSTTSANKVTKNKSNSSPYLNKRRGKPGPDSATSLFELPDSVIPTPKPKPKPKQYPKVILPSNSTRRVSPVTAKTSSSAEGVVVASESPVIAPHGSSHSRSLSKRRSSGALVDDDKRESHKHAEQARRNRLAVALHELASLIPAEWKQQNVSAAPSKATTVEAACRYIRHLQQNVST

| Sequence | relative binding free energy [kcal/mol] |
| --- | --- |
| GGTGACACGTGTAATA | 0.15 |
| TGGAGCACGTGGGTAA | -0.11 |
| AATAGCACGTGAATGG | 0.31 |
| GAAATCACGTGTGGTT | 0.31 |
| GATTGCACGTGCTTGG | 0.09 |
| GCTTACACGTGGATGT | 0.29 |
| TATTGCACGTGATTGT | 0.14 |
| ATAGGCACGTGATGGC | 0.07 |
| TATGGCACGTGGGTGA | -0.15 |
| TGTGTCACGTGAGGCT | 0.19 |
| ATAATCACGTGATAGG | 0.11 |
| AATTACACGTGTAGTG | 0.08 |
| GGCGGCACGTGTGGAG | -0.03 |
| ATGGGCACGTGGAGAC | -0.04 |
| TGCGTCACGTGTGTTA | 0.22 |
| ATGTCCACGTGGTTGA | -0.12 |
| TTATTCACGTGATTAC | 0.49 |
| GTTATCACGTGGTATG | 0 |
| CGATGCACGTGGGTAT | -0.11 |
| GGCAGCACGTGGTCGG | -0.24 |
| CGATGCACGTGTTGGC | 0.23 |
| TTTGTCACGTGCGAAT | 0.02 |
| GGTCACACGTGCGGTA | 0.08 |
| TAGCGCACGTGTAAGT | 0.16 |
| AGGTACACGTGTTTGC | 0.05 |

| Sequence | relative binding free energy [kcal/mol] |
| --- | --- |
| AATTTCACGTGTGGCG | 0.46 |
| ATGTTCACGTGGCGTT | 0.22 |
| TTGAGCACGTGGTGTT | -0.13 |
| GAGGGCACGTGAGGTC | 0.08 |
| TGGTACACGTGATCAT | 0.18 |
| TGGAGCACGTGAGAGA | 0.25 |
| TGTCGCACGTGGCTGG | -0.12 |
| GGATTCACGTGCGTTT | 0.2 |
| GCTGGCACGTGAATGT | 0.03 |
| TTGGACACGTGAGGAA | 0.33 |
| GGAGACACGTGGTTGG | -0.08 |
| AATTGCACGTGTTCTT | 0.03 |
| GTTATCACGTGACGGA | 0.39 |
| TTTGGCACGTGAATTA | 0.06 |
| AGTGACACGTGTGGCA | 0.01 |
| CGGGGCACGTGTGGTG | -0.09 |
| TGCGTCACGTGCTAGT | -0.04 |
| TATGGCACGTGCGGGT | -0.15 |
| ATTTGCACGTGGAGAT | 0.09 |
| TAGTCCACGTGATGGG | -0.04 |
| TCACTCACGTGTGAGT | 0.34 |
| CTTGACACGTGAATGG | 0.24 |
| ATGTCCACGTGTTGAT | -0.01 |
| GGGGTCACGTGTGTTT | 0.24 |
| TAAATCACGTGATGGT | 0.14 |

| Sequence | relative binding free energy [kcal/mol] |
| --- | --- |
| AAAGTCACGTGGATAA | 0.16 |
| CAGGGCACGTGCGGTA | -0.06 |
| GGTGTCACGTGGGAGC | 0.23 |
| GTTCTCACGTGTAATG | 0.19 |
| ACTTGCACGTGCTGGT | -0.08 |
| GCCGGCACGTGCTGGG | -0.01 |
| GGTGACACGTGTCGTA | 0.05 |
| TGGGTCACGTGGCTGC | 0.07 |
| ACTTTCACGTGCGGTT | 0.4 |
| CTGCTCACGTGGTTGT | 0.11 |
| GTAGGCACGTGGTCCG | -0.21 |
| GCGGTCACGTGTTTGA | 0.2 |
| GTATTCACGTGATGGG | 0.33 |
| TAGTTCACGTGTAGGA | 0.27 |
| TTCGGCACGTGTGCTG | 0 |
| AGCGTCACGTGGTTGC | -0.06 |
| GGTGGCACGTGCCTTT | -0.01 |
| TGTACCACGTGGGTGG | -0.16 |
| CGTTTCACGTGGTTAG | 0.29 |
| CTTTGCACGTGTGTCT | -0.02 |
| TGTATCACGTGTCATT | 0 |
| TTGATCACGTGCGGAT | 0.13 |
| ACTATCACGTGTTTTG | 0.17 |
| CCGTTCACGTGGTTTG | 0.25 |
| GGTTGCACGTGAGGCT | 0.17 |

| Sequence | relative binding free energy [kcal/mol] |
| --- | --- |
| AGGGTCACGTGCGCGG | -0.1 |
| TGATTCACGTGTAAAG | 0.27 |
| TTATACACGTGGCGAT | 0.08 |
| GTCTGCACGTGAGAGT | 0.16 |
| GTGCGCACGTGTGTAA | -0.13 |
| GAGGGCACGTGGTGCT | -0.07 |
| TAAGTCACGTGGCGTA | -0.09 |
| TTAAGCACGTGGAGGC | -0.12 |
| TATGACACGTGTGTGG | 0 |
| GGCGGCACGTGGGAGC | -0.15 |
| TGTAACACGTGCCGGG | -0.07 |
| TTTATCACGTGAAGAT | 0.35 |
| ATGGCCACGTGTAGTG | 0.02 |
| TGGAGCACGTGAGGCC | 0.11 |
| ATATTCACGTGGTTTG | 0.2 |
| ATTATCACGTGATTCG | 0.32 |
| AAGAGCACGTGGGATG | -0.21 |
| ATATACACGTGGGGGT | -0.08 |
| AGGAACACGTGGAGGA | 0 |
| GGCAGCACGTGTCGGG | -0.15 |
| TATGTCACGTGAGAAT | 0.22 |
| TTGTACACGTGCGTTA | 0.09 |
| TGGATCACGTGTTGTG | 0.19 |
| AATATCACGTGGTGTG | 0.05 |
| TGGCGCACGTGATATT | 0.15 |

| Sequence | relative binding free energy [kcal/mol] |
| --- | --- |
| GTGGTCACGTGTGACA | 0.1 |
| CATGGCACGTGTTTTG | 0 |
| TTAGTCACGTGGAAAT | 0.28 |
| AATGGCACGTGAGAAT | 0.2 |
| GGATGCACGTGTAGAA | 0.08 |
| AATGGCACGTGATATG | -0.09 |
| TTTGTCACGTGTTTTC | 0.02 |
| GATGCCACGTGGGTGT | -0.18 |
| TCTGGCACGTGGATTG | -0.06 |
| TTGGACACGTGATATA | 0.24 |
| GTTTACACGTGACGTT | 0.32 |
| CTGATCACGTGGGGGG | -0.03 |
| AATTTCACGTGTGATT | 0.36 |
| GGTCGCACGTGCTGTT | -0.15 |
| CGTATCACGTGTAGGT | 0.19 |
| ATGTTCACGTGTGGCT | 0.27 |
| GTACTCACGTGTGAGT | 0.15 |
| GAATACACGTGATTGG | 0.34 |
| GTTGTCACGTGATTCG | 0.14 |
| GTGCACACGTGTGCGG | 0.06 |
| GGTGGCACGTGAGTAA | 0.08 |
| TAAGGCACGTGGGGGG | -0.2 |
| TGGTTCACGTGGAACG | 0.32 |
| CGAGGCACGTGATGTG | 0.03 |
| GTTTTCACGTGAGGAT | 0.49 |

| Sequence | relative binding free energy [kcal/mol] |
| --- | --- |
| ACGGACACGTGTGAGG | 0.06 |
| CGGTACACGTGTGTTC | 0.19 |
| CAGATCACGTGAGTGG | 0.34 |
| AGATTCACGTGTAAGT | 0.29 |
| GTGTGCACGTGGAATC | 0.11 |
| AGATACACGTGGGTCT | -0.04 |
| GGTGACACGTGGGCTT | -0.14 |
| GAGGACACGTGCGTGG | -0.04 |
| ATAAGCACGTGGGGGA | -0.13 |
| TTAAACACGTGTGGAT | 0.13 |
| CATTGCACGTGGTTAG | -0.05 |
| AGTGACACGTGGGCGG | -0.24 |
| GGGTTCACGTGCGAAG | 0.25 |
| AGTAACACGTGGTTTT | -0.03 |
| CGTAGCACGTGTAGGT | 0.03 |
| ATTTGCACGTGGACGT | 0.03 |
| TAGGTCACGTGTGCGT | 0.08 |
| ATAAGCACGTGTTAGG | -0.27 |
| TCAGTCACGTGGGGCG | -0.21 |
| CGGATCACGTGAAGGG | 0.44 |
| GAGGCCACGTGTGTGT | -0.01 |

From the BET-seq Pho4 binding data (Le et al. 2018)
